# The campaign covered roughly 310,000 compounds. About 14,000 (4.5%) showed an effect of 50% or more. The effect is printed as a negative number. Some of the results follow.
# Biological target: human ether-à-go-go-related gene (hERG) potassium channel (human, UniProt Q12809)
# Experiment: primary screen, population patch clamp on CHO cells stably expressing hERG
# 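Also: peak tail current of the secondary pulse compared with the same well before compound.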
# Chain of human ether-à-go-go-related gene (hERG) potassium channel (Q12809 whole entry, looked up): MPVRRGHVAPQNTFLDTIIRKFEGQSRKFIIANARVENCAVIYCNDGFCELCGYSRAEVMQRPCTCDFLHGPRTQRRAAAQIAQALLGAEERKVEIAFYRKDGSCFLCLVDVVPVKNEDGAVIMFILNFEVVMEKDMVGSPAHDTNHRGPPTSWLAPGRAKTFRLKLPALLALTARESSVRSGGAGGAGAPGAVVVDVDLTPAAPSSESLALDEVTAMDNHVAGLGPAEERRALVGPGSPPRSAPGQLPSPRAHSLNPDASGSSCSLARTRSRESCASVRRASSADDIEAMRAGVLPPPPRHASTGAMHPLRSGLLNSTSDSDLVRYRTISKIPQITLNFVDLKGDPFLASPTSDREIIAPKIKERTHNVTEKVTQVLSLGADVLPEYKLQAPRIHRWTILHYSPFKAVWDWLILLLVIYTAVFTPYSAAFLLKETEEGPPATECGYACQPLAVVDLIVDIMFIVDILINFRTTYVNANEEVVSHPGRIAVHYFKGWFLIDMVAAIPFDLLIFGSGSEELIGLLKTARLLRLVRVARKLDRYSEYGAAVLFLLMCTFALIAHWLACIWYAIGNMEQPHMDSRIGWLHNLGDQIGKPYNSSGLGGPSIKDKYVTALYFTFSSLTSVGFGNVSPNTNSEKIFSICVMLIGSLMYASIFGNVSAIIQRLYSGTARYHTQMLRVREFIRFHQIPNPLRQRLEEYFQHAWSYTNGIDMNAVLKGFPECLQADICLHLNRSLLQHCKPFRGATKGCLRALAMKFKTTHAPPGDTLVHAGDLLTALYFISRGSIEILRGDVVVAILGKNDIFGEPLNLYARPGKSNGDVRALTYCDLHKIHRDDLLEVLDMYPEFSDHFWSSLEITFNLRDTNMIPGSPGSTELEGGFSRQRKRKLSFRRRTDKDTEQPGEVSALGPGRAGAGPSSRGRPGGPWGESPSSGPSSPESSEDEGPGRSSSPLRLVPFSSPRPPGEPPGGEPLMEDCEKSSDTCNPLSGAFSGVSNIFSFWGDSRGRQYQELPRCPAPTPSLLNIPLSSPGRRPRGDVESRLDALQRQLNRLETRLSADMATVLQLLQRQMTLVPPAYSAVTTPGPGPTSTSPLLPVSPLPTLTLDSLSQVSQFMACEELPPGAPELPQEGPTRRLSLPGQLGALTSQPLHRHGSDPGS
row,SMILES,"hERG current change (%, negative = inhibition) at 10uM"
1,COc1ccc(CNS(=O)(=O)c2c(C)[nH]c(C)c2C(=O)N2CCCCC2)cc1,-4.24%
2,O=C1C=C(c2cc(Cl)cc(Cl)c2)C[C@@H](c2ccc(F)cc2)C1,19.6%
3,COC(=O)CCCNC(=O)c1ccc(OC2CCN(CCc3ccccc3)CC2)cc1,-47.7%
4,O=c1[nH]c(=O)n(-c2ccccc2)c(O)c1/C=C1/C(c2ccccc2)=Nc2ccccc21,-4.66%
5,CCOC(=O)c1sc(NNC(=O)c2ccc(F)cc2)nc1C,-7.13%
6,COc1cccc(NC(=O)N2CCCC2C(=O)Nc2ccc3c(c2)OCO3)c1 (centres unmarked),15.8%
7,Cc1nn(Cc2ccc(Br)cc2)c(C)c1NC(=O)c1nn(C)cc1Cl,7.37%
8,CS(=O)(=O)c1ccc(-c2cc(Br)sc2-c2ccc(F)cc2)cc1,16.4%
9,Cc1cccc(OCC(=O)NCC(=O)N/N=C/c2ccc([N+](=O)[O-])cc2)c1,-11.6%
10,CC(/C=C\c1ccccc1)=C/C(=O)[O-],8.24%
11,COc1ccc(/C(C)=N/NC(=O)CNC(=O)/C=C\c2ccco2)cc1,6.28%
12,Cc1ccnc(NS(=O)(=O)c2ccc(NC(=O)c3cc(-c4ccccc4)nc4ccccc34)cc2)n1,7%
13,Cn1cc(CC(=O)NCCCN2CCCC2)c2ccccc21,15.6%
14,CSc1ccc(S(=O)(=O)N2CC(=O)Nc3ccccc32)cc1,-0.208%
15,CSc1ncc(OCc2ccccc2)c(=O)[nH]1,8.39%
16,Cc1nc(CN(C)C(=O)C2CCC(=O)N(CCc3cccc(F)c3)C2)cs1 (centres unmarked),-7.62%
17,COC(=O)c1ccccc1NC(=O)c1cccc(NC(=O)c2ccc(Br)o2)c1C,-15.5%
18,Cc1nn(CC(=O)N2CCN(c3ccccc3)CC2)c(=O)c2cccn12,18.1%
19,CCc1c(C)nc(SCCOc2ccc(OC)cc2)[nH]c1=O,6.82%

row,SMILES,"hERG current change (%, negative = inhibition) at 10uM"
1,CCOC(=O)C(C(=O)Nc1ccccn1)C1CCCCC1 (centres unmarked),-0.427%
2,COc1ccc(C[C@H]2CN3C(=NC[C@H]3C)N2CCNC(=O)CCC2CCCCC2)cc1,-69%
3,CC1CC(C)CN(C(=O)c2cc3cc(Br)cc(Br)c3o2)C1 (centres unmarked),28.1%
4,COc1cc(OC)c(OC)cc1/C=N/NC(=S)NCCN1CCOCC1,7.35%
5,Fc1ccc(-n2nnc(-c3cnc4ccccc4c3)n2)cc1,1.2%
6,CCOc1ccc(C2=Nn3cnnc3SC2)cc1,-14.8%
7,Cc1ccn2c(C(=O)c3ccc(Cl)cc3)cnc2c1,4.01%
8,C=C(C)Cn1c(CCn2c3ccccc3c3ccccc32)n[nH]c1=S,6.49%
9,CCCCCN(C(=O)CSc1n[nH]c(-c2ccc(C)cc2)n1)c1c(N)n(CCCC)c(=O)[nH]c1=O,2.66%
10,N#Cc1cccnc1Nc1ccc(Cl)cc1,-9.77%
11,CC(C)OCCCn1c(SC(C)C(=O)NC2CC2)nc2ccccc2c1=O (centres unmarked),-20.9%
12,CC(=O)N1CCc2cc(S(=O)(=O)C(C)CC(=O)NCc3ccc(C)o3)ccc21 (centres unmarked),7.92%
13,CCOc1ccc(OCCC(=O)OCC(=O)Nc2ccc(N3CCOCC3)cc2)cc1,17.9%
14,CC1=C(C)CC(C(=O)Nc2ccc3c(c2)OCO3)C(C(=O)O)C1 (centres unmarked),23%
15,O=C(CC(C(=O)O)c1cccc(Cl)c1Cl)c1ccccc1 (centres unmarked),26.2%
16,O=C(CN1CCSCC1)N/N=C/c1ccc(Cl)cc1,-12.5%
17,O=S(=O)(c1ccccc1)N(F)S(=O)(=O)c1ccccc1,8.14%
18,CCN(CC)c1cc(C)c2cc(NC(=O)c3ccccc3OC)ccc2n1,-18.6%
19,O=C(Nc1ccc2c(c1)OCO2)Nc1ccccn1,3.25%

row,SMILES,"hERG current change (%, negative = inhibition) at 10uM"
1,CC(C)C(=O)N1CCC2(CC1)Oc1ccc(Cl)cc1C(=O)C21CC(c2ccc(Cl)cc2)=NO1 (centres unmarked),-3.73%
2,c1ccc(Cc2nnc3sc(-c4ccco4)nn23)cc1,-4.63%
3,COc1cccc(CN2CCN(CC(=O)Nc3ccccc3Cl)CC2)c1,-72%
4,Brc1cccc(/C=N/Nc2nn[nH]n2)c1,18%
5,O=C(C1CCCN(c2ncnc3c2nc2n3CCCCC2)C1)N1CCN(c2ccccc2F)CC1 (centres unmarked),-72%
6,CC(=O)c1c(O)cc(=O)n(-c2ccccc2)c1-c1ccc(C)cc1,19.1%
7,CCC(C)N1CCN(C(=O)COc2ccc3ccccc3c2)CC1.O=C(O)C(=O)O (centres unmarked),-11.1%
8,Cc1ccc(-n2nnc3c(=O)n(CC(=O)N4CCOCC4)cnc32)cc1,-3.25%
9,CC1(C)CC(=O)c2sc(NS(=O)(=O)Cc3ccccc3)nc2C1,8.25%
10,COC(=O)[C@@]12CCCCN1[C@H](c1ccc(-c3ccc(F)cc3)c(OC)c1)[C@@H]1C(=O)N(C)C(=O)[C@@H]12.O=C(O)C(F)(F)F,-3.45%
11,C/C(CC(=O)NC(C)(C)C)=N\NC(=O)c1ccco1,8.86%
12,CCC(C)(C)NC(=O)C(c1ccccc1Cl)N(C(=O)CCC(=O)Nc1cc(C)on1)c1ccc(NC(C)=O)cc1 (centres unmarked),24.7%
13,COC(=O)c1cc(NC(=O)CN2CCc3cc4c(cc3C2)OCCCO4)cc(C(=O)OC)c1,1.97%
14,O=C1CN=C(c2cccs2)c2c(sc3c2CCCC3)N1,-28.8%
15,CCOc1ccc2nc(C(C)O)[nH]c2c1 (centres unmarked),5.23%
16,COc1cc(NC(=O)c2ccco2)c(OC)cc1NC(=O)CSc1nnc(-c2cccs2)n1C,-42.6%
17,CC(=O)N1N=C(c2cccnc2)OC1c1ccc(C(C)C)cc1 (centres unmarked),-30.1%
18,COc1ccccc1OCCCn1c(=O)oc2ccc(C)cc21,-45.7%
